Data as given in the supplement of paper PMC12217912.
This is one part of the list. Sequences were assembled here from the parent chain. Values near 0.05 are background.

B1: TEV protease; numbered along this chain (parent)
chain: MGESLFKGPRDYNPISSSICHLTNESDGHTTSLYGIGFGPFIITNKHLFRRNNGTLVVQSLHGVFKVKDTTTLQQHLVDGRDMIIIRMPKDFPPFPQKLKFREPQREERICLVTTNFQTKSMSSMVSDTSCTFPSGDGIFWKHWIQTKDGQCGSPLVSTRDGFIVGIHSASNFTNTNNYFTSVPKNFMELLTNQEAQQWVSGWRLNADSVLWGGHKVFMVKPEEPFQPVKEATQL

Variants of: B1
Test: raw area under fraction-flipped curve 0-4 h after induction (AUC4h, not background-subtracted), DNA-recorder readout of cleavage of the substrate (dimensionless); higher = more cleavage of the substrate by the protease variant
Details: temperature: 34 °C; time window: 0-4 h after rhamnose induction
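Further: Bxb1 expression induced with 0.2% (w/v) L-rhamnose at OD600 near 0.5, cultures sampled hourly, flipped fraction per protease–substrate barcode pair counted by paired-end Illumina sequencing.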

Row | Variant | area with substrate ENLYFQE | area with substrate ENLYFQG | area with substrate ENLYFQI | area with substrate ENLYFQL | area with substrate ENLYFQM | area with substrate ENLYFQP | area with substrate ENLYFQS | area with substrate ENLYFQT | area with substrate ENLYFQV | area with substrate ENLYFQW
1 | MGESLFKGPRDYNPISSSICHLTNESDGHTTSLYGIGFGPFIITNKHLFRRNNGTLVVQSLHGVFKVKDTTTLQGHLVDGRDMIIIRMPKDFPPFPQKLKFREPQREERICLVTTNFQTKSMSSMVSDTSCTFPSGDGIFWKHWIQTKDGQCGSPLVSTRDGFIVGIHSASNFTNTNNYFTSVPKNFMELLTNQEAQQWVSGWRLNADSVLWGGHKVFMVKPEEPFQPVKEATQL [Q75G] | 0.0522 | 0.0828 | 0.0309 | 0.0556 | 0.0528 | 0.0486 | 0.0979 | 0.0631 | 0.0568 | 0.0506
2 | MGESLFKGPRDYNPISSSICHLTNESDGHTTSLYGIGFGPFIITNKHLFRRNNGTLVVQSLHGVFKVKDTTTLQQHLVDGRDMIIIMMPKDFPPFPQKLKFREPQREERICLVTTNFQTKSMSSMVSDTSCTFPSGDGIFWKHWIQTKDGQCGSPLVSTRDGFIVGIHSASNFTNTNNYFTSVPKNFMELLTNQEAQQWVSGWRLNADSVLWGGHKVFMVKPEEPFQPVKEATQL [R87M] | – | – | 0.0457 | 0.0667 | – | – | 0.114 | – | – | 0.0684
3 | MGESLFKGPRDYNPISSSICHLTNESDGHTTSLYGIGFGPFIITNKHLFRRNNGTLVVQSLHGVFKVKDTTTLQQHLVDGRDMIIIRMPKDFPPFPQKLKFREPQREERICLVTTNFQTKSMSSMVSDTSCTFPSGDGIFWKHWIQTKDGQCGSPLVSTRDGFIVGIHSASNFTNTNNYFTSVPKNFMELLTNQEAQQWVSGWRCNADSVLWGGHKVFMVKPEEPFQPVKEATQL [L205C] | 0.064 | 0.0707 | – | 0.0536 | – | – | 0.0894 | – | 0.052 | 0.061
4 | MGESLFKGPRDYNPISSSICHLTNESDGHTTSLYGIGFGPFIITNKHLFRRNNGTLVVQSLHGVFKVKDTTTLQQHLVDGRDMIIIRMPKDFPPFPQKLKFREPQREERICLVTTNFQTKSMSSMVSDTSCTFPSGDGKFWKHWIQTKDGQCGSPLVSTRDGFIVGIHSASNFTNTNNYFTSVPKNFMELLTNQEAQQWVSGWRLNADSVLWGGHKVFMVKPEEPFQPVKEATQL [I139K] | – | 0.0788 | 0.0544 | 0.0638 | 0.0319 | – | 0.1 | – | 0.0563 | –
5 | MGESLFKGPRDYNPISSSICHLTNESDGHTTSLYGIGFGPFIITNKHLFRRNNGTLVVQSLHGVFKVKDTTTLQQHLVDGRDMIIIRMPKDFPPFPQKLKFREPQREERICLVTTNFQTKSMSSMVSDTSCTFPSGGGIFWKHWIQTKDGQCGSPLVSTRDGFIVGIHSASNFTNTNNYFTSVPKNFMELLTNQEAQQWVSGWRLNADSVLWGGHKVFMVKPEEPFQPVKEATQL [D137G] | 0.0601 | 0.0866 | 0.0646 | 0.047 | 0.0714 | – | 0.0907 | 0.0685 | 0.0549 | 0.0496
6 | MGESLFKGPRDYNPISSSICHLTNESDGHTTSLYGIGFGPFIITNKHLFRRNNGTLVVQSLHGVFKVKDTTTLQQHLVDGRDMIIIRMPKDFPPFPQKLKFREPQREERICLVTTNFQTKSMSSMVSDTSCTFPSGDGIFWKHWIQTKDGQCGSPLVSTRDGFIVGIHSASNFTNTNNYFTSVPKNFMELLTNQEAQQWVSGFRLNADSVLWGGHKVFMVKPEEPFQPVKEATQL [W203F] | – | – | – | 0.0536 | 0.0834 | 0.0621 | 0.081 | – | 0.0592 | –
7 | MGESLFKGPRDYNPISSSICHLTNESDGHTTSLYGIGFGPFIITNKHLFRRNNGTLVIQSLHGVFKVKDTTTLQQHLVDGRDMIIIRMPKDFPPFPQKLKFREPQREERICLVTTNFQTKSMSSMVSDTSCTFPSGDGIFWKHWIQTKDGQCGSPLVSTRDGFIVGIHSASNFTNTNNYFTSVPKNFMELLTNQEAQQWVSGWRLNADSVLWGGHKVFMVKPEEPFQPVKEATQL [V58I] | – | 0.0918 | 0.0547 | – | 0.109 | 0.0559 | 0.113 | – | – | 0.085
8 | MGESLFKGPRDYNPISSSICHLTNESDGHTTSLYGIGFGPFIITNKHLFRRNNGTLVVQSLHGVFKVKDTTTLQQHLVDGRDMIIIRMPKDFPPFPQKLKFREPQREERIELVTTNFQTKSMSSMVSDTSCTFPSGDGIFWKHWIQTKDGQCGSPLVSTRDGFIVGIHSASNFTNTNNYFTSVPKNFMELLTNQEAQQWVSGWRLNADSVLWGGHKVFMVKPEEPFQPVKEATQL [C111E] | – | – | 0.04 | 0.0696 | – | – | 0.0891 | 0.0575 | 0.0553 | 0.0688
9 | MGESLFKGPRDYNPISSSICHLTNESDGHTTSLYGIGFGPFIITNKHLFRRNNGTLVVQSLHGVFKVKDTTTLQQHLVDGRDMIIIRMPKDFPPFPQKLKFREPQREERICLVTTNFQTKSMSSMVSDTSCTFPSGDGIFWKHWIQTKDGQCGSPLVSTRDGFIVGIHSASNFTNTNNYFTSVPKNFMELLTNQEAQQWVSGWRLNADSVLWGGHEVFMVKPEEPFQPVKEATQL [K216E] | 0.064 | – | – | – | – | – | 0.093 | – | – | –

Same assay, conditions: temperature: 34 °C; time window: 0-4 h after rhamnose induction

Row | Variant | area with substrate ENLYFQY | area with substrate ENLYFQF | area with substrate ENLYFQK | area with substrate ENLYFQN | area with substrate ENLYFQD | area with substrate ENLYFQH | area with substrate ENLYFQR
10 | MGESLFKGPRDYNPISSSICHLTNESDGHTTSLYGIGFGPFIITNKHLFRRNNGTLVVQSLHGVFKVKDTTTLQGHLVDGRDMIIIRMPKDFPPFPQKLKFREPQREERICLVTTNFQTKSMSSMVSDTSCTFPSGDGIFWKHWIQTKDGQCGSPLVSTRDGFIVGIHSASNFTNTNNYFTSVPKNFMELLTNQEAQQWVSGWRLNADSVLWGGHKVFMVKPEEPFQPVKEATQL [Q75G] | 0.0618 | – | – | – | – | – | –
11 | MGESLFKGPRDYNPISSSICHLTNESDGHTTSLYGIGFGPFIITNKHLFRRNNGTLVVQSLHGVFKVKDTTTLQQHLVDGRDMIIIMMPKDFPPFPQKLKFREPQREERICLVTTNFQTKSMSSMVSDTSCTFPSGDGIFWKHWIQTKDGQCGSPLVSTRDGFIVGIHSASNFTNTNNYFTSVPKNFMELLTNQEAQQWVSGWRLNADSVLWGGHKVFMVKPEEPFQPVKEATQL [R87M] | – | 0.0857 | 0.0678 | 0.0829 | – | – | –
12 | MGESLFKGPRDYNPISSSICHLTNESDGHTTSLYGIGFGPFIITNKHLFRRNNGTLVVQSLHGVFKVKDTTTLQQHLVDGRDMIIIRMPKDFPPFPQKLKFREPQREERICLVTTNFQTKSMSSMVSDTSCTFPSGDGIFWKHWIQTKDGQCGSPLVSTRDGFIVGIHSASNFTNTNNYFTSVPKNFMELLTNQEAQQWVSGWRCNADSVLWGGHKVFMVKPEEPFQPVKEATQL [L205C] | 0.0698 | – | – | – | 0.0662 | 0.0832 | 0.0788
13 | MGESLFKGPRDYNPISSSICHLTNESDGHTTSLYGIGFGPFIITNKHLFRRNNGTLVVQSLHGVFKVKDTTTLQQHLVDGRDMIIIRMPKDFPPFPQKLKFREPQREERICLVTTNFQTKSMSSMVSDTSCTFPSGDGKFWKHWIQTKDGQCGSPLVSTRDGFIVGIHSASNFTNTNNYFTSVPKNFMELLTNQEAQQWVSGWRLNADSVLWGGHKVFMVKPEEPFQPVKEATQL [I139K] | 0.0662 | 0.0739 | 0.0522 | 0.109 | – | 0.0786 | 0.0463
14 | MGESLFKGPRDYNPISSSICHLTNESDGHTTSLYGIGFGPFIITNKHLFRRNNGTLVVQSLHGVFKVKDTTTLQQHLVDGRDMIIIRMPKDFPPFPQKLKFREPQREERICLVTTNFQTKSMSSMVSDTSCTFPSGGGIFWKHWIQTKDGQCGSPLVSTRDGFIVGIHSASNFTNTNNYFTSVPKNFMELLTNQEAQQWVSGWRLNADSVLWGGHKVFMVKPEEPFQPVKEATQL [D137G] | 0.0758 | 0.0726 | 0.0708 | 0.0926 | – | 0.0773 | –
15 | MGESLFKGPRDYNPISSSICHLTNESDGHTTSLYGIGFGPFIITNKHLFRRNNGTLVVQSLHGVFKVKDTTTLQQHLVDGRDMIIIRMPKDFPPFPQKLKFREPQREERICLVTTNFQTKSMSSMVSDTSCTFPSGDGIFWKHWIQTKDGQCGSPLVSTRDGFIVGIHSASNFTNTNNYFTSVPKNFMELLTNQEAQQWVSGFRLNADSVLWGGHKVFMVKPEEPFQPVKEATQL [W203F] | – | 0.0537 | 0.0523 | 0.0597 | – | 0.0612 | –
16 | MGESLFKGPRDYNPISSSICHLTNESDGHTTSLYGIGFGPFIITNKHLFRRNNGTLVIQSLHGVFKVKDTTTLQQHLVDGRDMIIIRMPKDFPPFPQKLKFREPQREERICLVTTNFQTKSMSSMVSDTSCTFPSGDGIFWKHWIQTKDGQCGSPLVSTRDGFIVGIHSASNFTNTNNYFTSVPKNFMELLTNQEAQQWVSGWRLNADSVLWGGHKVFMVKPEEPFQPVKEATQL [V58I] | – | 0.0779 | – | – | – | – | 0.0422
17 | MGESLFKGPRDYNPISSSICHLTNESDGHTTSLYGIGFGPFIITNKHLFRRNNGTLVVQSLHGVFKVKDTTTLQQHLVDGRDMIIIRMPKDFPPFPQKLKFREPQREERIELVTTNFQTKSMSSMVSDTSCTFPSGDGIFWKHWIQTKDGQCGSPLVSTRDGFIVGIHSASNFTNTNNYFTSVPKNFMELLTNQEAQQWVSGWRLNADSVLWGGHKVFMVKPEEPFQPVKEATQL [C111E] | – | 0.0664 | 0.0612 | 0.106 | – | – | –
18 | MGESLFKGPRDYNPISSSICHLTNESDGHTTSLYGIGFGPFIITNKHLFRRNNGTLVVQSLHGVFKVKDTTTLQQHLVDGRDMIIIRMPKDFPPFPQKLKFREPQREERICLVTTNFQTKSMSSMVSDTSCTFPSGDGIFWKHWIQTKDGQCGSPLVSTRDGFIVGIHSASNFTNTNNYFTSVPKNFMELLTNQEAQQWVSGWRLNADSVLWGGHEVFMVKPEEPFQPVKEATQL [K216E] | – | – | – | 0.0588 | – | – | –
